This series deals with ATP. Kind of series: switch fluorescence ratio, 500 uM ATP over buffer (Cy3 cluster intensity, sum of 5 cycles each) (fold (ratio)); higher = stronger signal-on switching upon ATP binding; sequences stand for … in TCGTCGGCAGCGTCAGATGTGTATAAGAGACAGTTTTTTTTTTTTTTTTTTTTTTTTT…TC. Particulars: aptamer strand: ATP DNA aptamer (quencher-CACCTGGGGGAGTATTGCGGAGGAAGG + anchor), 100 nM annealed; ATP concentration: 500 uM; one replicate. In outline: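 Imaging in selection buffer was followed by imaging after 15 min with 500 uM ATP at 22 °C, for Cy3-labelled switching-strand clusters annealed to 100 nM quencher-labelled ATP aptamer on a modified Illumina MiSeq flow-cell. Five of these buffer/ATP cycles ran, separated by NaOH stripping and re-annealing. The fluorescence ratio per cluster is summed target-cycle over summed buffer-cycle Cy3 intensity, averaged per switch-domain sequence; clusters outside 100-1000 RFU were removed.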

Values marked as one replicate rest on one cluster of the flow cell; about a third of the high ones do not repeat.

The text below walks through data of the supplement of paper PMC10126150.
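Further: ATP exposure 15 min at 22 °C before imaging.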

For the sequence CGTTACGGCG, the switch fluorescence ratio is 1.03.
As for GGCAATAATG, the switch fluorescence ratio amounted to 1.07.
The same measure for GGTACACGGC: 1.03; for ACTCGGTGGT: 1.02; for AAAACCAGTT: 1.03.
To AGGTCCAGAG belongs 0.976; to GTTGTCCGT, 1.08; to TTTAGTTAGT, 0.949.
The same measure for CAAAGGTTT: 0.934.
Turning to TCGCATCGGC, the switch fluorescence ratio worked out at 1.3.
To ATACCCTTGC belongs 1.5.
To TTAAATTATA belongs 1.02; to GGATACGTGG, 0.987; to AAACGCTCGG, 1.03.
As for TGTCTGTGCG, the switch fluorescence ratio is 1.02.
CATATTTAGT: the switch fluorescence ratio was 0.974.
To TGCGCACCGG belongs 0.992.
To ATCCATGCA belongs 0.991; to GATTAGGAGG, 0.984.
The same measure for GTCATGACGG: 1.
Consider TTGGCTATC, for which the switch fluorescence ratio turned out to be 1.05.
On to CCGGAAGTTG, for which the switch fluorescence ratio turned out to be 1.02.
As to GGCTGGTCCA, the switch fluorescence ratio amounted to 1.
For the sequence AAGAGGACGT, the switch fluorescence ratio is 0.993.
To TCCGAATGGC belongs 1.58; to TTGCTAACGT, 1.01.
Turning to ATCTTTCGGT, the switch fluorescence ratio is 1.08.
The same measure for TATTCCGCGG: 1.15.
To ATAAGCAGTG belongs 1.01; to CGTCTGTAAT, 4.14.
Regarding GGGGAGGTGC, the switch fluorescence ratio came to 1.01.
As for AATCAACAGC, the switch fluorescence ratio stood at 1.03.
As to GGACTATTAG, the switch fluorescence ratio amounted to 1.08.
For the sequence CGGAATTAAT, the switch fluorescence ratio worked out at 1.02.
With CGGGTGCTGG, the switch fluorescence ratio is 0.977.
On to TGATGCGATG, for which the switch fluorescence ratio was determined as 1.03.
To GTTGCGTATG belongs 0.953; to ATCCAGGCAA, 2.34.
Turning to ACCGGGCCTA, the switch fluorescence ratio was determined as 0.974.
The same measure for GGCACCCACA: 1.29; for TAGGAGATAA: 1.04.
On to TATCGATGG, for which the switch fluorescence ratio is 0.999.
To AATGTGAGCA belongs 0.987.
On to TACTGTCTGT, for which the switch fluorescence ratio amounted to 0.984.
The same measure for TGGGGCACCA: 0.993.
The same measure for CAGACCGTTG: 1; for GCATCCCACT: 1.05.
The same measure for TGTGAATAAG: 0.975; for GGGTTGATTC: 0.958; for TATTCCTGAA: 0.957.
CACGAGGTAG: the switch fluorescence ratio was found to be 1.02.
Take TTGCAGTTGA: the switch fluorescence ratio worked out at 1.06.
To TTTTATATCG belongs 1.07.
With TTGACGTCGC, the switch fluorescence ratio is 1.11.
The same measure for CACGCGGTGA: 1.02; for ATTTTGTCTG: 1.02.
For CAAAGTACT, the switch fluorescence ratio was 1.12.
The same measure for CTTGAGAGCT: 0.962; for ACTTAATATG: 0.969; for TGCTTCGTAT: 1.05.
On to TGCGAA, for which the switch fluorescence ratio is 1.01.
For the sequence CCAAATGCG, the switch fluorescence ratio was 1.04.
For GGGTGGCTCC, the switch fluorescence ratio was determined as 1.04.
To CTCGTTGTAT belongs 1.02; to CCCTGGGTAG, 1.22.
ATACGGGTCC: the switch fluorescence ratio amounted to 1.
For the sequence GCCTTCAGCT, the switch fluorescence ratio was found to be 0.968.
As to CTACACAAGG, the switch fluorescence ratio is 1.15.
As to TCCTTCAATG, the switch fluorescence ratio was determined as 1.11.
Turning to TCTAGCATTC, the switch fluorescence ratio worked out at 2.25.
The same measure for CGTTAACGTT: 0.999; for TCGAGGAGA: 0.991.
Consider AGTTCCCATT, for which the switch fluorescence ratio came out at 1.05.
As to ATGGCTCTAC, the switch fluorescence ratio was 1.04.
As to GGGGTAGGA, the switch fluorescence ratio worked out at 0.974.
The same measure for CGTTGTCTG: 0.993; for GTCGCTGGGA: 0.984.
In the case of TCACTTTGCC, the switch fluorescence ratio stood at 0.952.
Take AGTTTGGACT: the switch fluorescence ratio amounted to 0.999.
To ATGATCTATA belongs 0.981; to TATATCCGTG, 0.968; to TTCTGCGCAG, 1.04.
To GCAACGACGT belongs 0.982; to AATCACTTAG, 1.09; to CTGATTCTTG, 0.993.
To GCTGGGTGAG belongs 1.01; to TTGGAGATTA, 1.01; to AATGAGTCTA, 0.982.
For TAGCCATTAT, the switch fluorescence ratio amounted to 1.02.
The same measure for GCCAATTAAC: 1.13; for TTGGACGGAG: 0.909.
To GTCCCATGTT belongs 1.02.
AACAGGGTGT: the switch fluorescence ratio came out at 1.07.
To GCGCATGGAA belongs 1.02.
For the sequence GATCCTGAGA, the switch fluorescence ratio is 0.958.
With CTGGGTGTGG, the switch fluorescence ratio was determined as 0.978.
Consider TACCCTCGCA, for which the switch fluorescence ratio stood at 1.67.
For GGTGTGATGA, the switch fluorescence ratio stood at 0.994.
On to GCGACCGGGT, for which the switch fluorescence ratio worked out at 1.04.
The same measure for GATATCAGTC: 1.03.
Turning to AAATTGGTGC, the switch fluorescence ratio came to 1.04.
With CCACTCGTTA, the switch fluorescence ratio was 1.08.
To GAGACCATCG belongs 1.07; to AAGCGCAGAA, 1.02; to ATCCGTTTGA, 0.977.
Turning to GCCTCATCGC, the switch fluorescence ratio is 0.973.
Consider GCGGAATCTT, for which the switch fluorescence ratio worked out at 0.997.
To GACGCTTCGT belongs 1.02; to TAAATCCTGT, 1.01.
To GTTAGACGTC belongs 1.1; to TGTTTTCTCT, 0.991.
The same measure for TGAGGAAACT: 1; for CACTTCTGCC: 0.996.
On to CCTAACCTT, for which the switch fluorescence ratio was determined as 1.66.
On to GACGGTCGGT, for which the switch fluorescence ratio came out at 0.967.
Turning to TATCTTGGTT, the switch fluorescence ratio was 0.951.
The same measure for ATCCGGGG: 1.06; for TGAAGACAGG: 1.
To GCGGTATTGG belongs 0.978; to CGTGAGTCAC, 0.959.
